Experimental data taken from PubChem BioAssay AID504706 (National Center for Advancing Translational Sciences (NCATS), 2011).
The whole screen tested about 320,000 compounds, of which about 200 (0.062%) were called active. This list was built around the results that the source calls inconclusive (neither active nor inactive); the mix of calls is not that of the screen. Calls come from the whole dose curve; as a rule, active = well fitted activation curve with a large enough effect; inconclusive = small, poorly fitted or top-dose-only effect; inactive = no such curve, though single readings can be large or run the other way. No potency is given beside an inconclusive call; the fits are too rough.
Potency is the fitted concentration of half-maximal effect; tags give direction and shape of the fitted curve.

Test: qHTS assay for re-activators of p53 using a Luc reporter; note: nearly all actives have a fitted effect of over 45% in size
Settings: H1299 p53-A138V BP100-luciferase reporter, luminescence, 24 h; series mostly up to 92.2 µM
How it was run: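 p53-null H1299 cells stably carrying temperature-sensitive p53-A138V and a BP100-luciferase reporter were pinned with compounds (4-point, 1:5 series) and held 24 hrs at 37 deg C. Luminescence was read 10 min after detection reagent.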
For `CN(C)c1nc(N/N=C/c2ccccc2O)nc(Nc2ccc(F)cc2)n1`, the Potency was inconclusive [activator, partial curve, poor fit].
In the case of `Cn1c(Cl)c(C(=O)Nc2ccc(Cl)cc2)c2ccccc21`, the Potency is reported as “inactive”.
In the case of `COC(=O)CN1C(=O)C(O)(CC(=O)c2ccc(Br)cc2)c2ccccc21` (stereo not given), the Potency is reported as inconclusive [activator, single point].
In the case of `Cc1ccc(Cn2ncn(-c3ccccc3)c2=O)cc1`, the Potency is reported as inconclusive [activator, single point].
With `CCOC(=O)C1CCCN(c2ncnc3c2cnn3-c2ccc(OC)cc2)C1` (stereo not given) the Potency was inconclusive [activator, full curve, poor fit].
With `NC(=O)c1ccccc1OCc1nnc(-c2ccccc2Br)o1` the Potency was inconclusive [activator, partial curve, poor fit].
In the case of `Cc1ncc(CO)c(/C=N/NC(=S)Nc2ccc(F)cc2)c1O`, the Potency is reported as “inactive”.
For `CC(C)(C)c1ccc(C(=O)NC(=S)Nc2nc3c(s2)CCCC3)cc1`, the Potency was inconclusive [activator, partial curve, poor fit].
With `O=C(Nc1ccc(Cn2cccn2)cc1)c1ccc(COc2cccc(Br)c2)cc1` the Potency was inconclusive [activator, full curve, poor fit].
For `CC(OC(=O)c1ccc([N+](=O)[O-])o1)C(=O)Nc1nc(-c2ccc(F)c(F)c2)cs1` (stereo not given), the Potency was inconclusive [activator, full curve, poor fit].
In the case of `CCOC(=O)CN1C(=O)S/C(=C/c2ccc3c(c2)n(C)c(=O)n3C)C1=O`, the Potency is reported as inconclusive [activator, partial curve, poor fit].
In the case of `O=C(Nc1cccc(-c2csc(Nc3cccc(C(F)(F)F)c3)n2)c1)c1ccccc1`, the Potency is reported as “inactive”.
In the case of `O=C(NCCCN1CCOCC1)c1cc(-c2ccccc2)on1`, the Potency is reported as inconclusive [activator, full curve, poor fit].
With `CC(=O)Nc1ccc(C(=O)OCC(=O)NCc2cccs2)cc1` the Potency was inconclusive [activator, single point].
In the case of `Cn1cc(Cl)c(-c2n[nH]c(=S)n2-c2ccccc2)n1`, the Potency is reported as “inactive”.
With `O=C(c1ccccc1)N(Cc1nc2ccccc2c(=O)[nH]1)C1CCCCC1` the Potency was “inactive”.
For `CCCN1C(=O)c2ccc(C(=O)NCc3ccco3)cc2C1=O`, the Potency was inconclusive [activator, single point].
In the case of `CC(=O)Nc1ccc2[nH]c(C)c(CC=C(Cl)Cl)c(=O)c2c1`, the Potency is reported as “inactive”.
In the case of `Cc1cccc(/C=N/NC(=O)Cc2cccs2)c1`, the Potency is reported as “inactive”.
With `COc1ccc(C(=O)NNC(=O)c2ccc3ccccc3n2)cc1` the Potency was inconclusive [activator, partial curve, poor fit].
In the case of `CN1CCN(C(=O)COCc2cc(-c3ccc4c(c3)OCO4)on2)CC1`, the Potency is reported as inconclusive [activator, single point].
For `COc1ccc(CC(=O)N2CC3(C)CC2CC(C)(C)C3)cc1` (stereo not given), the Potency was “inactive”.
In the case of `Cc1cc(N2CCC(C)CC2)nc2cccc(O)c12`, the Potency is reported as inconclusive [activator, full curve, poor fit].
In the case of `Cc1cnc(NC(=O)CCCNC(=O)c2ccc(Cl)cc2)s1`, the Potency is reported as inconclusive [activator, partial curve, poor fit].
For `O=C(O)CSc1nnc(-c2ccc(Cl)cc2Cl)n1-c1ccccc1`, the Potency was inconclusive [activator, single point].
For `Cc1ccc(N=C2NC(=O)c3cccc([N+](=O)[O-])c32)cc1`, the Potency was inconclusive [activator, full curve, poor fit].
In the case of `Cc1nn(-c2ccc(Cl)cc2)c(N)c1C(O)(CSc1nccn1C)C(F)(F)F` (stereo not given), the Potency is reported as inconclusive [activator, partial curve, poor fit].
For `COc1ccc(CN2CCN(CCCc3ccccc3)C(CCO)C2)c(OC)c1` (stereo not given), the Potency was inconclusive [activator, single point].
In the case of `Cc1cccc(C(=O)OCC(=O)NC23CC4CC(CC(C4)C2)C3)c1O`, the Potency is reported as inconclusive [activator, partial curve, poor fit].
In the case of `O=C(NNC(=O)c1cccs1)c1ccco1`, the Potency is reported as “inactive”.
For `Cc1ccccc1NC(=O)c1sc(Cl)nc1C`, the Potency was “inactive”.
With `Cc1c(Cl)cccc1N1C(=O)CC(NNC(=O)c2ccc3c(c2)OCO3)C1=O` (stereo not given) the Potency was “inactive”.
For `C/C(CCc1oc2ccc(Br)cc2c1-c1ccc(C)o1)=N/O`, the Potency was “inactive”.
For `O=C(N/N=C/c1ccc(O)cc1)NC12CC3CC(CC(C3)C1)C2`, the Potency was “inactive”.
For `Cc1ccc2sc(N(CCCN(C)C)C(=O)CCS(=O)(=O)c3ccccc3)nc2c1C`, the Potency was “inactive”.
In the case of `CCc1ccc(Nc2n[n+](-c3ccccc3)c(-c3cccc(C)c3)s2)cc1`, the Potency is reported as inconclusive [activator, partial curve, poor fit].
With `Cc1[nH]n(-c2ccccc2)c(=O)c1/C=N/NC(=O)c1cccc(F)c1` the Potency was inconclusive [activator, partial curve, poor fit].
In the case of `O=C(/C=C/Nc1ccc(F)c(F)c1)c1ccc(Br)cc1`, the Potency is reported as inconclusive [activator, partial curve, poor fit].
With `CCc1nccn1CCC(=O)N1CCCC(N2CCN(c3ccccc3C)CC2)C1` (stereo not given) the Potency was inconclusive [activator, single point].
In the case of `O=C(N/N=C/c1ccc(-c2ccc([N+](=O)[O-])cc2)o1)C(O)c1ccccc1` (stereo not given), the Potency is reported as inconclusive [activator, partial curve, poor fit].
For `O=C(CC(=O)c1ccccc1)Nc1cccnc1`, the Potency was inconclusive [activator, partial curve, poor fit].
With `O=C(CN1C(=O)c2ccccc2S1(=O)=O)N1CCCCC1` the Potency was inconclusive [activator, full curve, poor fit].
With `CC(C)n1cnc2c(NCc3ccccc3)cc(N[C@H](C)CO)cc21` the Potency was “inactive”.
With `COc1ccccc1OCC(=O)Nc1ccc(Cl)cc1` the Potency was inconclusive [activator, partial curve, poor fit].
For `N#C/C(=C(\O)c1ccco1)c1ccccn1`, the Potency was inconclusive [activator, partial curve, poor fit].
For `COc1ccc(/C=N/NC(=O)c2ccoc2C)cc1COc1c(C)cccc1C`, the Potency was inconclusive [activator, partial curve, poor fit].
In the case of `NC(=O)c1ccc(NC(=O)c2cccc(Oc3ccccc3)c2)cc1`, the Potency is reported as “inactive”.
In the case of `COc1ccc(Nc2nc(N)nc(CSc3nnc(C)s3)n2)cc1`, the Potency is reported as inconclusive [activator, full curve, poor fit].
In the case of `c1ccn2c(SCc3ccc4c(c3)OCO4)nnc2c1`, the Potency is reported as inconclusive [activator, partial curve, poor fit].
With `O=C(Nc1nc2ccccc2[nH]1)c1cccs1` the Potency was “inactive”.
With `O=C(N=Nc1c(O)[nH]c2ccccc12)c1cc(-c2cccs2)[nH]n1` the Potency was “inactive”.
With `O=C(/C(C=Nc1cccc(C(F)(F)F)c1)=C(/O)c1ccco1)C(F)(F)F` the Potency was inconclusive [activator, partial curve, poor fit].
In the case of `COc1ccc(/C=N/NC(=S)Nc2ccccc2)cc1COc1ccc(Br)cc1`, the Potency is reported as “inactive”.
In the case of `CCCCCOc1ccc(CSCCNC(=S)Nc2ccccc2)cc1`, the Potency is reported as inconclusive [activator, single point].
For `COc1ccc(-n2cc(-c3ccccc3)nc2SC)cc1`, the Potency was inconclusive [activator, full curve, poor fit].
For `CSc1ncccc1C(=O)Nc1cc(C)ccn1`, the Potency was “inactive”.
With `O=c1oc2c(CN3CCCCC3)c(O)ccc2c2c1CCCCC2` the Potency was inconclusive [activator, full curve, poor fit].
For `FC(F)(F)c1nnc(-c2ccccc2)nc1Oc1ccc(Cl)cc1Cl`, the Potency was inconclusive [activator, single point].
With `O=[N+]([O-])c1ccc(OCc2cnc(Cl)s2)c([N+](=O)[O-])c1` the Potency was inconclusive [activator, single point].
For `CC(=O)Nc1ccc2nc(-c3ccccc3)cn2c1`, the Potency was inconclusive [activator, partial curve, poor fit].
In the case of `O=C(CSc1nc2ccccc2o1)c1cc2ccccc2oc1=O`, the Potency is reported as inconclusive [activator, partial curve, poor fit].
In the case of `Fc1ccc(CNC(=S)Nc2ccccc2F)cc1`, the Potency is reported as “inactive”.
In the case of `CNc1oc(-c2ccc(OCc3ccccc3)cc2)nc1C#N`, the Potency is reported as inconclusive [activator, partial curve, poor fit].
In the case of `Nc1ccc2nc(-c3ccc(Cl)cc3)[nH]c2c1`, the Potency is reported as inconclusive [activator, full curve, poor fit].
For `CCc1ccc(S(=O)(=O)Nc2cc3c(cc2C)n(C)c(=O)n3C)cc1`, the Potency was “inactive”.
In the case of `CCOC(=O)Cn1nc(-c2ccc(Cl)cc2)cc1N`, the Potency is reported as inconclusive [activator, single point].
In the case of `O=C(Nn1cnnc1)c1cc2c(s1)CCCCC2`, the Potency is reported as inconclusive [activator, partial curve, poor fit].
In the case of `COCCN(C(=O)CCC(=O)Nc1ccccn1)C(C(=O)NCCC(C)C)c1ccc(F)cc1` (stereo not given), the Potency is reported as “inactive”.
With `c1ccc(CSc2nc3ccccc3[nH]2)cc1` the Potency was inconclusive [activator, partial curve, poor fit].
For `Cc1sc2ncnc(SCC(=O)NC(=O)c3cccn3C)c2c1C`, the Potency was “inactive”.
